The source of these data is the supplement of paper PMC10338343.

± gives the standard deviation. The entries are a selection whose mix differs from that of the whole data set.

One experiment concerns MIWI (PIWIL1) piRISC loaded with L1MC piRNA (30 nt). Kind of experiment: pre-steady-state target cleavage rate (min^-1); MIWI and MILI are mouse PIWI proteins and EfPiwi is from a freshwater sponge; tags in brackets are library labels; higher = faster piRNA-guided slicing of the target. The note with it: guide: L1MC piRNA 5'p-UAACUAAAUACUAUGCAAGCUGUAGGUCCU; auxiliary factor: 500 nM mouse GTSF1. As to the method:
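Cleave-'n-Seq: a library of target RNAs (target site embedded in constant flanks, ACAGCATTCCGCGTTAGTGATATCCG... 5' flank; DNA-blocked outside the site) at 0.1 nM was incubated with 1 nM active mouse MILI or MIWI piRISC (synthetic 5'-monophosphorylated piRNA guide) with or without 500 nM mouse GTSF1 at 33 °C for 1 min to 16 h. Uncleaved targets were sequenced and normalised to non-target controls, and the pooled three trials were fitted to a burst-and-steady-state model to give the pre-steady-state cleavage rate (min^-1; k3 is constrained to at most 1e-4). Sequence is the target site only; target names encode pairing extent (gX:gY) and contiguous / 1-mismatch / 2-mismatch / bulge geometry. Fits with R² ≤ 0 are excluded.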
UCCUGGUACAGCUUGCAUAGUAAAUACAAA: the “pre-steady-state target cleavage rate” value came out at 0.0664 ± 0.023.

On to UCCUGCUACAGCUAGCAUAGUUUUUAGUUA, for which the “pre-steady-state target cleavage rate” value was 0.362 ± 0.031.

With UCCUCCUACAGCUUGCAUAGAAUUUACAAA, the “pre-steady-state target cleavage rate” value is 0.295 ± 0.045.

For the sequence UCGUCCUACAGCUUGCAUAGUAUUUACAAA, the “pre-steady-state target cleavage rate” value is 0.362 ± 0.038.

AAGGACCUACAGCUUGCAUAGUAUUUAGUUA: the “pre-steady-state target cleavage rate” value was 1.29 ± 0.071.

Take UCCACCUACAGCUUGCAUAGUAAUUUAGUUA: the “pre-steady-state target cleavage rate” value worked out at 0.201 ± 0.028.

Regarding UGGACCUACAGGUUGCAUAGAAUUUAGUUA, the “pre-steady-state target cleavage rate” value is 0.222 ± 0.018.

UGGAGCUACAGCUUGCAUACUAUUUAGUUA: the “pre-steady-state target cleavage rate” value was 0.377 ± 0.015.

Consider UCCUGGAUCAGCUUGCAAUGUAUUUAGUAA, for which the “pre-steady-state target cleavage rate” value stood at 0.0391 ± 0.0083.

Regarding UGGACCUACUGCUUGCAUAGUUUUUAGUUA, the “pre-steady-state target cleavage rate” value was 0.302 ± 0.018.

On to AGGACCUACACGUUGCAUAGUAUUUACAAA, for which the “pre-steady-state target cleavage rate” value was determined as 0.34 ± 0.043.

In the case of UCCUGGAUCAGCUUGCAUACUAUUUACUUA, the “pre-steady-state target cleavage rate” value stood at 0.175 ± 0.028.

For UCCUCCUACAGCUUGCAUAGCAUUUAGUUA, the “pre-steady-state target cleavage rate” value stood at 0.393 ± 0.026.

For UCCACCUACUGGUUGCAUAGUAUUUAGUUA, the “pre-steady-state target cleavage rate” value turned out to be 0.661 ± 0.062.

For the sequence AGGACCUACAGCUUGCAUACUAUUUAGAUA, the “pre-steady-state target cleavage rate” value was 0.168 ± 0.034.

Turning to UCCUGGAUGAGCUUGCAUACUAUUUACUUA, the “pre-steady-state target cleavage rate” value came to 0.0812 ± 0.02.

For UCCUGGAUGUCGAACCAUAGUAUAUAGUAA, the “pre-steady-state target cleavage rate” value is below 0.0001.

On to UCCUGGAUGAGCUUGCAUAGUAUUUUGUAA, for which the “pre-steady-state target cleavage rate” value is 0.12 ± 0.027.

UCCUGCUACAGCUUGCAUUCUAUUUUCAAA: the “pre-steady-state target cleavage rate” value was 0.0098 ± 0.0053.

For the sequence UGGACCUACAGCUUGCAUUCUAUUUAGUAA, the “pre-steady-state target cleavage rate” value came out at 0.0545 ± 0.012.

In the case of UCCUGGAACAGCAAGCAUAGUAUUUAGUUA, the “pre-steady-state target cleavage rate” value was 0.942 ± 0.065.

Regarding UCCACCUACAGCUUGGUAAGUAUUUAGUAA, the “pre-steady-state target cleavage rate” value amounted to 0.0391 ± 0.013.

In the case of UCCUCCUAGAGCUAGCAUAGUAUUUAGUUA, the “pre-steady-state target cleavage rate” value was found to be 0.634 ± 0.035.

Staying with this experiment, now noted: guide: L1MC piRNA 5'p-UAACUAAAUACUAUGCAAGCUGUAGGUCCU; auxiliary factor: none (no GTSF1).
Turning to UCCUGCUACAGCUAGCAUAGUUUUUAGUUA, the “pre-steady-state target cleavage rate” value was determined as 0.0132 ± 0.0034.

For UCGUCCUACAGCUUGCAUAGUAUUUACAAA, the “pre-steady-state target cleavage rate” value was 0.00463 ± 0.002.

Regarding AAGGACCUACAGCUUGCAUAGUAUUUAGUUA, the “pre-steady-state target cleavage rate” value was 0.0755 ± 0.014.

For UCCACCUACAGCUUGCAUAGUAAUUUAGUUA, the “pre-steady-state target cleavage rate” value came to 0.00822 ± 0.0023.

Turning to UGGACCUACAGGUUGCAUAGAAUUUAGUUA, the “pre-steady-state target cleavage rate” value turned out to be 0.0125 ± 0.004.

For UGGAGCUACAGCUUGCAUACUAUUUAGUUA, the “pre-steady-state target cleavage rate” value was found to be 0.0317 ± 0.0059.

Regarding UCCUGGAUCAGCUUGCAAUGUAUUUAGUAA, the “pre-steady-state target cleavage rate” value came to 0.00427 ± 0.0027.

UGGACCUACUGCUUGCAUAGUUUUUAGUUA: the “pre-steady-state target cleavage rate” value is 0.0267 ± 0.0066.

Consider UCCUGGAUCAGCUUGCAUACUAUUUACUUA, for which the “pre-steady-state target cleavage rate” value was determined as 0.0103 ± 0.0022.

With UCCUCCUACAGCUUGCAUAGCAUUUAGUUA, the “pre-steady-state target cleavage rate” value was found to be 0.0272 ± 0.005.

For UCCACCUACUGGUUGCAUAGUAUUUAGUUA, the “pre-steady-state target cleavage rate” value amounted to 0.0297 ± 0.0047.

For the sequence AGGACCUACAGCUUGCAUACUAUUUAGAUA, the “pre-steady-state target cleavage rate” value was 0.0118 ± 0.0035.

In the case of UCCUGGAUGAGCUUGCAUACUAUUUACUUA, the “pre-steady-state target cleavage rate” value came out at 0.00894 ± 0.0034.

Regarding UCCUGGAUGUCGAACGUAAGUAUAAAGUUA, the “pre-steady-state target cleavage rate” value is below 0.0001.

For UCCUGGAUGAGCUUGCAUAGUAUUUUGUAA, the “pre-steady-state target cleavage rate” value turned out to be 0.0108 ± 0.0031.

Consider UGGACCUACAGCUUGCAUUCUAUUUAGUAA, for which the “pre-steady-state target cleavage rate” value amounted to 0.00462 ± 0.0023.

For UCCUGGAACAGCAAGCAUAGUAUUUAGUUA, the “pre-steady-state target cleavage rate” value came to 0.0039 ± 0.0024.

Turning to UCCUCCUAGAGCUAGCAUAGUAUUUAGUUA, the “pre-steady-state target cleavage rate” value is 0.0109 ± 0.0023.
